Our source for the relative growth values is the supplement of paper PMC9446081.

Molecules are shown by their SMILES. In all, about 39,000 compounds went through this assay and about 220 (0.56%) showed activity. The list shows a part of the results.
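Also: static incubation at 37 °C against the wild-type strain, values averaged over two biological replicates.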

This experiment deals with Escherichia coli K-12 BW25113. The experiment is described as follows: relative growth (OD600 normalised to plate interquartile mean) (fraction); higher = less growth inhibition, active = 0.2 or less. The note with it: 50 µM; LB; incubation time: overnight (16-24 h).
As for `CC(C)NC(=O)N(C)C[C@@H]1Oc2c(NS(=O)(=O)c3cccs3)cccc2C(=O)N([C@H](C)CO)C[C@@H]1C`, the relative growth was inactive: 0.971.

Consider `C[C@@H]1CN([C@H](C)CO)C(=O)c2cc(NS(=O)(=O)c3ccccc3)ccc2O[C@@H](C)CCCCO[C@@H]1CN(C)Cc1ccc2c(c1)OCO2`, for which the relative growth was inactive: 0.997. As to `Cc1noc(C)c1S(=O)(=O)Nc1ccc2c(c1)C(=O)N([C@H](C)CO)C[C@@H](C)[C@H](CN(C)Cc1ccc(-c3ccccc3)cc1)O2`, the relative growth was inactive: 0.957. For the compound `O=C(C[C@H]1CC[C@H]2[C@@H](COC[C@@H](O)CN2S(=O)(=O)c2cccc(Cl)c2)O1)NCc1ccc2c(c1)OCO2`, the relative growth is inactive: 1. On to `CO[C@@H]1CN(C)C(=O)c2ccc(NC(=O)Nc3ccc(Cl)cc3)cc2OC[C@@H](C)N(C(=O)Nc2c(C)noc2C)C[C@H]1C`, for which the relative growth is inactive: 0.954. For `C[C@H]1CN([C@@H](C)CO)C(=O)c2cc(NC(=O)CCN3CCOCC3)ccc2O[C@H]1CN(C)S(C)(=O)=O`, the relative growth was inactive: 0.992. `C[C@H](CO)N1C[C@H](C)[C@H](CN(C)C(=O)Nc2ccc(C(F)(F)F)cc2)Oc2ncc(C#C[C@@H](C)O)cc2C1=O`: the relative growth is inactive: 0.997. Turning to `CC(C)C#Cc1ccc2c(c1)O[C@@H](CN(C)C(=O)Cc1ccccn1)[C@@H](C)CN([C@H](C)CO)S2(=O)=O`, the relative growth was inactive: 1.01. In the case of `CC(C)NC(=O)Nc1ccc2c(c1)C(=O)N([C@H](C)CO)C[C@H](C)[C@@H](CN(C)S(=O)(=O)c1cccs1)O2`, the relative growth was inactive: 1. Take `Cc1ccc(S(=O)(=O)Nc2ccc3c(c2)C(=O)N([C@H](C)CO)C[C@H](C)[C@@H](CN(C)Cc2ccccc2)OCCCC[C@@H](C)O3)cc1`: the relative growth is inactive: 0.973. `C[C@H]1CN([C@@H](C)CO)S(=O)(=O)c2ccc(C#Cc3ccccc3F)cc2O[C@@H]1CN(C)C(=O)Cc1cccnc1`: the relative growth is inactive: 0.981. Turning to `Cc1ccc(OCCn2c(CC(C)(C)C)nc3ccccc32)cc1`, the relative growth was inactive: 0.916. On to `Cc1noc(C)c1S(=O)(=O)N(C)C[C@H]1Oc2ccc(NS(=O)(=O)c3ccccc3)cc2CC(=O)N([C@@H](C)CO)C[C@@H]1C`, for which the relative growth is inactive: 0.981. For the compound `C[C@H]1CN([C@@H](C)CO)C(=O)c2cccc(NC(=O)c3cnccn3)c2O[C@@H]1CN(C)C(=O)Nc1ccccc1`, the relative growth is inactive: 0.986.

With `CO[C@H]1O[C@H](CO)[C@@H](OC(=O)Nc2ccccc2-c2ccccc2)[C@H](OC(=O)Nc2ccc3c(c2)OCO3)[C@H]1OC(=O)Nc1ccc2c(c1)OCO2`, the relative growth is inactive: 1.03. Take `C[C@@H]1CCCCO[C@@H](CN(C)C(=O)C2CCCCC2)[C@@H](C)CN([C@H](C)CO)C(=O)c2cc(NC(=O)Nc3ccc(C(F)(F)F)cc3)ccc2O1`: the relative growth is inactive: 1.04.

For the compound `CC(C)NC(=O)Nc1cccc2c1O[C@H](CN(C)S(=O)(=O)c1cccs1)[C@@H](C)CN([C@@H](C)CO)C2=O`, the relative growth was inactive: 1.01. For `C[C@@H]1CN([C@H](C)CO)C(=O)c2cc(-c3ccncc3)cnc2O[C@@H]1CN(C)S(=O)(=O)c1ccc(F)cc1`, the relative growth is inactive: 1.01.

Turning to `C[C@H]1CN([C@@H](C)CO)S(=O)(=O)c2ccc(C#CC3(O)CCCC3)cc2O[C@@H]1CN(C)C(=O)Nc1ccc(F)cc1`, the relative growth was inactive: 0.987.

As to `CCCC[C@@H](C)/C=C(C)/C=C(\C)C(=O)NC1=C[C@@](O)(/C=C/C=C/C=C/C(=O)NC2C(=O)CCC2=O)[C@@H]2O[C@@H]2C1=O`, the relative growth is inactive: 0.814.

`C[C@@H]1CN([C@@H](C)CO)S(=O)(=O)c2ccc(-c3cncnc3)cc2O[C@H]1CN(C)C(=O)Cc1ccccc1`: the relative growth was inactive: 1. In the case of `C[C@H](CO)N1C[C@H](C)[C@@H](CN(C)Cc2cccnc2)Oc2cc(C#CCN(C)C)ccc2S1(=O)=O`, the relative growth is inactive: 1.02.

Regarding `C[C@H]1CN([C@@H](C)CO)C(=O)c2cc(NC(=O)Nc3cccc4ccccc34)ccc2O[C@@H]1CN(C)Cc1ccc(Oc2ccccc2)cc1`, the relative growth was inactive: 0.999. To `Cc1noc(C)c1NC(=O)Nc1ccc2c(c1)C(=O)N([C@H](C)CO)C[C@H](C)[C@@H](CN(C)C(=O)Nc1ccc(C(F)(F)F)cc1)OCCCC[C@H](C)O2` belongs inactive: 1; to `O=C(C[C@H]1CC[C@@H](NC(=O)CN2CCOCC2)[C@H](CO)O1)NCCc1ccncc1`, inactive: 0.928; to `C[C@@H]1CCCCO[C@@H](CN(C)C(=O)Nc2ccc3c(c2)OCO3)[C@@H](C)CN([C@H](C)CO)C(=O)c2cc(NC(=O)Nc3ccccc3)ccc2O1`, inactive: 0.981. In the case of `Cc1noc(C)c1S(=O)(=O)Nc1ccc2c(c1)C(=O)N([C@@H](C)CO)C[C@@H](C)[C@@H](CN(C)C(=O)Nc1ccc3c(c1)OCO3)O2`, the relative growth is inactive: 0.981. Take `CN(C)CCCNC(=O)C[C@@H]1C=C[C@H](NC(=O)Cc2cccnc2)[C@@H](CO)O1`: the relative growth is inactive: 0.95.

Turning to `COc1ccc([Si](C)(C)[C@@H]2[C@@H](CCn3cc([C@H](O)c4ccccc4)nn3)O[C@]3(C(=O)N(c4ccccc4)c4ccccc43)[C@H]2C)cc1`, the relative growth was inactive: 1.03. For the compound `C[C@@H]1CN([C@H](C)CO)C(=O)c2cc(NS(=O)(=O)c3ccc(Cl)cc3)ccc2O[C@@H](C)CCCCO[C@H]1CN(C)C(=O)Nc1ccc(F)cc1`, the relative growth is inactive: 1.01.

With `C[C@@H]1CN([C@H](C)CO)C(=O)c2cc(NC(=O)CCC(F)(F)F)ccc2O[C@@H](C)CCCCO[C@@H]1CN(C)C(=O)CCC(F)(F)F`, the relative growth was inactive: 0.836.

`C[C@H](CO)N1C[C@H](C)[C@H](CN(C)Cc2ccc(-c3ccccc3)cc2)Oc2c(NC(=O)c3ccc(-c4nccs4)cc3)cccc2C1=O`: the relative growth is inactive: 0.994.

Take `C[C@@H]1CN([C@H](C)CO)S(=O)(=O)c2ccc(C#CCN(C)C)cc2O[C@H]1CN(C)C(=O)Nc1ccccc1F`: the relative growth is inactive: 1.03.

Regarding `C[C@H](CO)N1C[C@H](C)[C@@H](CN(C)Cc2ccc(Cl)c(Cl)c2)Oc2ccc(NS(=O)(=O)c3ccc(F)cc3)cc2CC1=O`, the relative growth is inactive: 0.997. With `Cc1cncc2cccc(S(=O)(=O)N[C@H]3CN[C@H](COC(=O)NCCOCCOCCN)C3)c12`, the relative growth was inactive: 1.

As for `COc1ccc(NC(=O)N(C)C[C@H]2OCCCC[C@H](C)Oc3ccc(NC(=O)c4ccccc4)cc3C(=O)N([C@@H](C)CO)C[C@H]2C)cc1`, the relative growth was inactive: 0.99. Consider `Cc1cc(-c2ccccc2)nc(-c2ccccc2)c1C`, for which the relative growth is inactive: 0.937. Take `COc1ccc(C#Cc2ccc3c(c2)O[C@H](CN(C)C(C)=O)[C@@H](C)CN([C@@H](C)CO)S3(=O)=O)cc1`: the relative growth was inactive: 1.03. Consider `C[C@H]1CN([C@@H](C)CO)C(=O)c2cccc(NS(=O)(=O)c3cccs3)c2O[C@@H]1CN(C)Cc1ccc(Oc2ccccc2)cc1`, for which the relative growth was inactive: 1. Take `CCCc1cc(-c2nc(-c3ccc(C)cc3)cs2)ccn1`: the relative growth is inactive: 1.02. On to `CN1C(=O)c2cc(NS(=O)(=O)c3cccc(F)c3)ccc2OC[C@H]2O[C@@H](CC(=O)NCCN3CCCCC3)CC[C@@H]21`, for which the relative growth is inactive: 0.977. As to `C[C@@H]1CN([C@H](C)CO)S(=O)(=O)c2ccc(-c3cccnc3)cc2O[C@H]1CN(C)C(=O)NC1CCCC1`, the relative growth was inactive: 0.998.

Regarding `Cc1noc(C)c1NC(=O)Nc1ccc2c(c1)C(=O)N([C@H](C)CO)C[C@@H](C)[C@H](CN(C)Cc1ccncc1)OCCCC[C@H](C)O2`, the relative growth was inactive: 0.987.

`C[C@@H]1CCCCO[C@@H](CN(C)CC2CCCCC2)[C@H](C)CN([C@@H](C)CO)C(=O)c2cc(N(C)C)ccc2O1`: the relative growth is inactive: 1.01. `CO[C@H]1CN(C)C(=O)c2ccc(NS(=O)(=O)c3cn(C)cn3)cc2OC[C@H](C)N(CCC(F)(F)F)C[C@H]1C`: the relative growth was inactive: 0.998.

For the compound `COc1ccc(NC(=O)N(C)C[C@@H]2Oc3ccc(NS(=O)(=O)c4c(C)noc4C)cc3C(=O)N([C@H](C)CO)C[C@H]2C)cc1`, the relative growth was inactive: 1.

In the case of `COC(=O)[C@H](Cc1ccc(-n2cc(C(=O)NO)nn2)cc1)N[C@H](/C=C/C1CC1)[C@@H](O)Cc1ccccc1`, the relative growth is inactive: 1.01. Turning to `CC(C)NC(=O)N(C)C[C@@H]1Oc2ccc(NC(=O)c3ccncc3)cc2CC(=O)N([C@@H](C)CO)C[C@H]1C`, the relative growth is inactive: 0.947.

With `CCN(CC)CCNC(=O)c1cc(S(C)(=O)=O)ccc1OC.Cl`, the relative growth is inactive: 1.12. As for `C[C@@H]1CN([C@H](C)CO)C(=O)c2cc(NS(=O)(=O)c3cn(C)cn3)ccc2O[C@@H]1CN(C)S(=O)(=O)c1ccc(F)cc1`, the relative growth is inactive: 1.

Consider `Cc1noc(C)c1S(=O)(=O)Nc1cccc2c1O[C@H](CN(C)CC1CC1)[C@H](C)CN([C@H](C)CO)C2=O`, for which the relative growth is inactive: 0.998. For `O=C(CS)NCCCCCNC(=O)[C@H]1C[C@H]2C(=O)NCC(=O)N2[C@H]1c1cccc(OCCO)c1`, the relative growth is inactive: 0.929. Consider `C[C@H](CO)N1C[C@H](C)[C@@H](CN(C)Cc2ccc(C(=O)O)cc2)Oc2c(NC(=O)Nc3cccc4ccccc34)cccc2C1=O`, for which the relative growth was inactive: 0.77.

For `CN(C)c1ccnc(CNS(C)(=O)=O)n1`, the relative growth is inactive: 1.06. For the compound `C[C@H]1CN([C@@H](C)CO)C(=O)c2cc(NC(=O)CCC(F)(F)F)ccc2O[C@H]1CN(C)Cc1ccc(Oc2ccccc2)cc1`, the relative growth was inactive: 0.998. To `Cc1ccc(S(=O)(=O)Nc2ccc3c(c2)C(=O)N([C@@H](C)CO)C[C@H](C)[C@@H](CN(C)S(C)(=O)=O)OCCCC[C@@H](C)O3)cc1` belongs inactive: 1.02; to `CCCN(C)C[C@H]1OCCCC[C@@H](C)Oc2ccc(NS(C)(=O)=O)cc2C(=O)N([C@H](C)CO)C[C@@H]1C`, inactive: 1.01; to `Cc1noc(C)c1NC(=O)Nc1ccc2c(c1)C(=O)N([C@H](C)CO)C[C@@H](C)[C@@H](CN(C)Cc1ccc(C(=O)Nc3ccccc3N)cc1)O2`, inactive: 0.991.
